Screen size: about 310,000 compounds; about 14,000 (4.5%) showed an effect of 50% or more. The effect is printed as a negative number. This is one part of the list.
Biological target: human ether-à-go-go-related gene (hERG) potassium channel (human, UniProt Q12809)
Assay: primary screen, population patch clamp on CHO cells stably expressing hERG
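Also: peak tail current of the secondary pulse compared with the same well before compound.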

Sequence of human ether-à-go-go-related gene (hERG) potassium channel (Q12809 whole entry, looked up): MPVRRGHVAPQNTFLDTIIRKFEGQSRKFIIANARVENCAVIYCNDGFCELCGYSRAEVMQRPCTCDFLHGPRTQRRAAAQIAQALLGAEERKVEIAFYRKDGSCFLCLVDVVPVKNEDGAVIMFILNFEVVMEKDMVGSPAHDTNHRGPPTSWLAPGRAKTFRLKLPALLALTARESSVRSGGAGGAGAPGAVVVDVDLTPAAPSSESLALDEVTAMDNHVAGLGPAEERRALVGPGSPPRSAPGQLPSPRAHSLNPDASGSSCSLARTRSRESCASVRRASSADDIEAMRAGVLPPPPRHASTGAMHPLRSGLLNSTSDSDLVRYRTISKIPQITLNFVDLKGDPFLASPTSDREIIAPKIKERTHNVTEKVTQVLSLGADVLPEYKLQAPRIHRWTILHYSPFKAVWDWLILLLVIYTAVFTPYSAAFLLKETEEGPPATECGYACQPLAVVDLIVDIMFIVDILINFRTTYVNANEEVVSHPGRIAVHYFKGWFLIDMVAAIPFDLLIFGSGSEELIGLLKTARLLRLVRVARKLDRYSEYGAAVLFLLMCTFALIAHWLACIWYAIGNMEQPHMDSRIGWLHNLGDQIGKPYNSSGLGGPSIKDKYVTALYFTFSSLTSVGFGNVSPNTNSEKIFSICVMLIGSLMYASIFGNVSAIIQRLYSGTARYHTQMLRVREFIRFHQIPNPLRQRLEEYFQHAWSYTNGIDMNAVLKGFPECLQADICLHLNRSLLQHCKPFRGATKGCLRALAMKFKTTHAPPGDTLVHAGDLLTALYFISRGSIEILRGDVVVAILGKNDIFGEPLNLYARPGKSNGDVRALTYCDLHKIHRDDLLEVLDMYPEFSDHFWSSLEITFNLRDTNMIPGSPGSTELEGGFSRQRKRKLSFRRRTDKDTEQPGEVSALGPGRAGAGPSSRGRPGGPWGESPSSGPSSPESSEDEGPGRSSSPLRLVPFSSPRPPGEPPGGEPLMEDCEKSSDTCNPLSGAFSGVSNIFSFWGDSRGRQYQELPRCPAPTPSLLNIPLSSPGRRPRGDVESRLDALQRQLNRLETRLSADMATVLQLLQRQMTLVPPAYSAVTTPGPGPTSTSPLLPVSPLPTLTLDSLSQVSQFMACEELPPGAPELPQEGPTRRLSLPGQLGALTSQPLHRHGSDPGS

| SMILES | hERG current change (%, negative = inhibition) at 10uM |
| --- | --- |
| CCOc1ccccc1CNC(=O)CCCC(=O)n1nc(C)c2ccccc21 | 16% |
| O=C(COc1ccc(S(=O)(=O)N2CCCC2)cc1Cl)NCc1ccccn1 | 4.66% |
| C[C@H](NC(=O)N1CCn2c1nc1ccccc12)C(=O)NCC1CCCO1 (some centres unmarked) | 20.8% |
| CC1=Nn2c(nnc2-c2cccs2)SC1 | 4.76% |
| CCN(CC)c1ccc(C=N/C(C#N)=C(\N)C#N)cc1 | -3.71% |
| COc1ccc(/C=C2\CCC(C3CCCC3)C2=O)c(OC)c1OC (centres unmarked) | 6.95% |
| Cc1nn(-c2ccccc2)c(Cl)c1C(=O)NCc1ccccc1F | 21.2% |
| CCOC(=O)c1ccc2c(c1)n(CC)c(C)[n+]2CC.[I-] | 23.7% |
| CSc1ncc(Cl)c(C(=O)Nc2ccc(NC(C)=O)cc2)n1 | -16.5% |
| CCn1c(CSc2nc(C)cs2)nc2cc(S(=O)(=O)N(C)C)ccc21 | -13.8% |
| Cc1cccnc1Sc1c([N+](=O)[O-])ncn1C | 9.1% |
| O=C(NC(=S)Nc1ccc(Br)cn1)c1cccs1 | 17.3% |
| Nc1c(Cl)ncnc1NCc1cccnc1 | 13.1% |
| CCOC(=O)C1=C(C)NC(C)=C(C(=O)OCC)C1C(=O)OCC(=O)NC1(C#N)CCCCC1 | -22.1% |
| COc1ccc(NC(=O)Cn2nc(C(F)(F)F)c3c2CCCC3)cc1OC | -9.93% |
| O=C(CN1CCOCC1)N/N=C/c1cc2ccccc2nc1Cl | -7.14% |
| BrC(=C\c1ccccc1)/C=N/Nc1ccc2nncn2n1 | -21.6% |
| COc1ccc(CC(=O)NNC(=O)CCc2ccccc2)cc1 | 10.7% |
| CCCCn1nnnc1SCC(=O)Nc1cccc(C)n1 | -15.2% |
| O=C(Nc1ccc(Br)cc1Cl)NC1CC1 | 1.3% |
| Cc1ccc(-c2nc3ccccc3o2)cc1NC(=O)c1ccc2c(c1)OCO2 | -13.3% |
| O=C(N/N=C/c1ccc([N+](=O)[O-])s1)c1cccnc1 | 5.77% |
| COc1ccc(CCN(C)C(=O)C2CCCN(C3CCN(Cc4ccccc4)CC3)C2)cc1OC (centres unmarked) | -17.1% |

| SMILES | hERG current change (%, negative = inhibition) at 10uM |
| --- | --- |
| CN1C(=O)C2(C(C#N)=C(N)N(c3ccc(Cl)cc3)C3=C2C(=O)CC(C)(C)C3)c2ccccc21 (centres unmarked) | -6.79% |
| CC1=C(C(=O)OCCOC(C)C)C(c2cc3c(cc2Br)OCO3)CC(=O)N1 (centres unmarked) | 0.66% |
| COc1ccc(NC(=O)c2ccco2)c(OC)c1 | 16.9% |
| O=C(Nc1ccc(Cl)cn1)c1cccc(S(=O)(=O)N2CCOCC2)c1 | -65.4% |
| COc1ccc(-c2cc(C(=O)NCC3CCCO3)c3ccccc3n2)cc1 (centres unmarked) | -10.7% |
| CCOC(=O)C1CCN(C(=O)c2c(-c3ccccc3)noc2C)CC1 | 22.2% |
| O=C(CNC(=O)c1ccco1)NCC(=O)OCc1ccccc1Br | -0.53% |
| C/C(=N\NC(=O)c1ccccc1F)c1ccccn1 | -12.1% |
| CCN(C(=O)CSc1nc(-c2ccccc2)c(-c2ccccc2)[nH]1)C1CCS(=O)(=O)C1 (centres unmarked) | -21.7% |
| Cc1cc(C)c(O)c(-c2cc(C(=O)NCc3ccccc3)[nH]n2)c1 | 9.04% |
| CC(OC(=O)Cn1[nH]c(=O)c2ccccc2c1=O)C(=O)Nc1ccc(F)cc1 (centres unmarked) | -6.34% |
| O=C(CSCc1ccc(F)cc1)Nc1ccc(F)cc1 | -18.3% |
| CCCCn1nc(C(=O)Nc2cc(S(=O)(=O)N(C)C)ccc2C)c2ccccc2c1=O | -2.39% |
| O=[N+]([O-])c1ccc(S(=O)(=O)Nc2nc3ccccc3nc2Nc2ccccc2)cc1 | 2.57% |
| CC(=O)Nc1ccc(OCC(O)Cn2c(C(C)C)nc3ccccc32)cc1 (centres unmarked) | 37.5% |
| Cc1nc(N2CCCCC2C)c2c(C)c(C(=O)Nc3cccc(C(F)(F)F)c3)sc2n1 (centres unmarked) | 12.5% |
| COc1ccc(/C=N/Nc2cc(C)nc(N3CCOCC3)n2)cc1 | 4.93% |
| CC(C)CC(=O)Nc1ccc(C(=O)Nc2cccc(O)c2)cc1 | 27.3% |
| O=[N+]([O-])c1cccnc1Oc1ccccc1F | 5.89% |
| CCC1CCCCN1S(=O)(=O)c1ccc(C(=O)Nc2nnc(C3=COCCO3)o2)cc1 (centres unmarked) | 2.66% |
| CCOC(=O)CC1CCCCN1Cc1cn[nH]c1-c1ccc(F)cc1F (centres unmarked) | -64.8% |
| COC(=O)C1CC(O)CN1S(=O)(=O)c1ccc2ccccc2c1 (centres unmarked) | -3.41% |
| CN(C(=O)COC(=O)C1CCN(S(=O)(=O)c2ccc3c(c2)OCCO3)CC1)C1CCCCC1 | -17.5% |

| SMILES | hERG current change (%, negative = inhibition) at 10uM |
| --- | --- |
| Brc1ccc(CSc2ncnc3nc[nH]c23)cc1 | -10.3% |
| Cc1ccc(NC(=O)NC(=O)N(C2CCCCC2)S(=O)(=O)c2ccccc2)cc1 | -1.76% |
| CCc1nc2ccccc2n1Cc1ccccc1OC | -10.1% |
| CN(C)c1ccc(NC(=O)COC(=O)c2cc(=O)c3ccccc3o2)cc1 | 12% |
| O=C(COC(=O)c1n[nH]c2ccccc12)NC(=O)NCc1ccco1 | -7.44% |
| CC(=O)c1cc(C)ccc1OC(=O)c1ccco1 | -2.77% |
| Cc1ccccc1-n1c(=O)n(Cc2ccc(C(=O)O)cc2)c(=O)c2[nH]cnc21 | 33.6% |
| O=c1c2ccccc2[nH]c(=S)n1CCC1=CCCCC1 | 17% |
| Cc1ccc(C2=NN(C(=O)CN3C(=O)c4ccccc4S3(=O)=O)C(c3ccco3)C2)cc1 (centres unmarked) | 14.1% |
| CCOC(=O)N1CCC(NC(=O)c2ccc3c(c2)ncn3C2CCCC2)CC1 | -1.01% |
| CC(C)CNC(=S)NNC(=O)c1ccco1 | -18.1% |
| CC1CCN(c2ccc([N+](=O)[O-])cc2C(=O)N2CCOCC2)CC1 | 3.86% |
| CC[C@@]1(c2ccccc2)C(=O)N(C(=O)OC)N1C(=O)OC | 33.5% |
| COc1ccc(N2C(=O)NC(=O)/C(=C/c3cccc(OC(=O)c4cccs4)c3)C2=O)cc1Cl | -2.57% |
| Cn1c(N)c(C(=O)COC(=O)CCCN2C(=O)c3ccccc3C2=O)c(=O)n(C)c1=O | -12.3% |
| COC(=O)c1cc(NC(=O)c2ccc(OC)cc2)c(=O)oc1C | 16.1% |
| O=C(NCCc1ccc(Cl)cc1)c1ccc2nc(N3CCOCC3)sc2c1 | 12.4% |
| CC(=O)c1cccn1S(=O)(=O)c1ccccc1 | 18.1% |
| Cc1c(C(=O)NCCCN2CCCC2=O)oc2ccccc12 | 7.96% |
| Cn1cc(CN2CCC(CO)(CCCc3ccccc3)CC2)c(-c2ccccc2)n1 | -66.3% |
| CCC(C)(C)NC(=O)CN(C(=O)c1snc(C(N)=O)c1N)c1ccc2c(c1)OCCO2 | 11.6% |
| NS(=O)(=O)c1ccc(NC(=O)COC(=O)C23CC4CC(CC(C4)C2)C3)cc1 | 12.5% |
| COc1cccc(C(=O)Oc2cc(N)n(S(=O)(=O)c3ccc(C)cc3)n2)c1OC | 0.237% |

| SMILES | hERG current change (%, negative = inhibition) at 10uM |
| --- | --- |
| O=C(Nc1ccc(O)cc1)c1cccc(Oc2ccc([N+](=O)[O-])cc2)c1 | -37% |
| COc1ccccc1C(=O)OCC(=O)N1CCC(Cc2ccccc2)CC1 | -10.3% |
| NC(=O)c1ccc(NC(=O)COc2cccc3ccccc23)cc1 | 17.9% |
| Cn1cc(-c2cccc(Cl)c2)cc(C#N)c1=O | -17.5% |
| Cc1cc(-c2nnc3n2N=C(c2ccc(F)cc2)CS3)n[nH]1 | -60.3% |
| CCn1c(CNC(=O)COc2ccc(C(C)C)cc2)nnc1SCC(=O)Nc1ccccc1 | -54.2% |
| N/C(=N\OC(=O)c1cc(Cl)ccc1Cl)c1ccncc1 | -6.36% |
| COc1nc(C)ccc1-c1noc(-c2ccco2)n1 | 10% |
| O=C(CCc1ccccc1Cl)Nc1ccc(S(=O)(=O)N2CCOCC2)cc1 | -4.49% |
| Cc1ccc(C2(C)NC(=O)N(CC(=O)N3CCN(S(=O)(=O)c4cccc(F)c4)CC3)C2=O)cc1 (centres unmarked) | -65.7% |
| CC1CC(C)CN(S(=O)(=O)c2cccc(C(=O)OCCN3CCCC3=O)c2)C1 (centres unmarked) | -17.6% |
| COc1ccc(-n2c(C)c3c(OC)cccc(=O)c3c2C)cc1 | -60.2% |
| Brc1ccc(-c2nc(-c3ccccc3)no2)o1 | 16.7% |
| COC(=O)c1ccc(CN2CCN(Cc3ccccc3)C(CCO)C2)cc1 (centres unmarked) | -16.5% |
| O=C(CSc1nnc(-c2ccccc2Cl)n1Cc1ccco1)Nc1ccc2c(c1)OCCO2 | -8.43% |
| CCn1cc(C(=O)NCCOC)c(=O)c2ccc(C)nc21 | 8.9% |
| CC(=O)n1nc(-c2ccco2)nc1SCc1ccccc1 | 0.418% |
| CC(=O)Nc1ccc(Nc2cc(C)nc3c(-c4ccccc4)cnn23)cc1 | 11.1% |
| C=CCOc1cccc(C2C(C(=O)c3ccco3)=C(O)C(=O)N2CCN(CC)CC)c1 (centres unmarked) | 2.38% |
| CC(C)CNC(=O)Cn1nc(C(F)(F)F)c2c1CCCC2 | 7.47% |
